We go through two molecules from patent CN116199779A (BEIJING DONGFANG BIOTECH CO LTD; BEIJING JINGYI TAIXIANG …, dated 2023).

Positions count from the first letter of the chain named.

For one assay, the target named is T1, LILRB4抗原 (人LILRB4蛋白胞外段) (human, UniProt Q8NHJ6 22-259).
T1 construct: extracellular domain; also called 白细胞免疫球蛋白样受体亚家族B成员4
Description: ELISA, coated LILRB4, anti-human IgG-HRP.

Assay [1] has as its target T2, THP-1细胞表面的LILRB4 (human, UniProt Q8NHJ6 22-448). The assay can be described thus: cell-based or functional assay.
The target in assay [2] is T2, THP-1细胞表面的LILRB4. The assay can be described thus: flow cytometry competition on THP-1 cells; competitor FITC-labelled ApoE. A general note: A flow cytometer gives signals particle by particle.
The target in assay [3] is T2, THP-1细胞表面的LILRB4. The assay can be described thus: cell-based or functional assay. This is another data set of the same source.
In assay [4] the target is T2, THP-1细胞表面的LILRB4. Description: flow cytometry on THP-1 cells.

B1: 人源化抗体HB-Ⅱ (human IgG1, Ck) (antibody)
heavy: QVQLVQSGAEVKKPGASVKVSCKASGYTFTNYWMHWVRQAPGQGLEWIGEINPSNGRTNYNEKFKTRATLTVDTSTSTAYMELSSLRSEDTAVYYCARWGQLGLREGYYAVDYWGQGTLVTVSSASTKGPSVFPLAPSSKSTSGGTAALGCLVKDYFPEPVTVSWNSGALTSGVHTFPAVLQSSGLYSLSSVVTVPSSSLGTQTYICNVNHKPSNTKVDKRV[human IgG1 Fc with changes not given here]
light: DIQMTQSPSSLSASVGDRVTITCRASQDISNYLNWYQQKPGGAVKLLIYYTSRLHSGVPSRFSGSGSGTDYTFTISSLQPEDIATYFCQQGNTLPPTFGGGTKVEIKRTVAAPSVFIFPPSDEQLKSGTASVVCLLNNFYPREAKVQWKVDNALQSGNSQESVTEQDSKDSTYSLSSTLTLSKADYEKHKVYACEVTHQGLSSPVTKSFNRGEC
notes: also called HB-II
The term EC50 denotes the concentration needed to bring the measured effect to its halfway point. Read a low EC50 as a more potent agent. In turn, B1 came in with an EC50 with LILRB4抗原 (人LILRB4蛋白胞外段) of 0.918 µg/mL.

B2: 人源化抗体HB-Ⅲ (human IgG1, Ck) (antibody)
heavy: QVQLVQSGAEVKKPGASVKVSCKASGYTFTNYWMHWVRQAPGQGLEWIGEINPSNGRTNYNEKFKTRATLTVDTSTSTAYMELSSLRSEDTAVYYCARWGQLGLREGYYAVDYWGQGTLVTVSSASTKGPSVFPLAPSSKSTSGGTAALGCLVKDYFPEPVTVSWNSGALTSGVHTFPAVLQSSGLYSLSSVVTVPSSSLGTQTYICNVNHKPSNTKVDKRV[human IgG1 Fc with changes not given here]
light: B1 light with Q3V
notes: also called HB-III
As usually defined, the IC50 is the point on the concentration scale where inhibition reaches its midpoint. Low values mean higher potency, high ones lower potency. B2: in the assay with THP-1细胞表面的LILRB4 [1], the “IC50, NF-κB luciferase reporter in THP-1-NF-κB-Luc cells stimulated with ApoE” value was 0.83 µg/mL. In the assay with THP-1细胞表面的LILRB4 [2], the IC50 turned out to be 0.426 µg/mL. In addition, the concentration for a half-maximal effect (EC50) was 0.0743 µg/mL in the assay with LILRB4抗原 (人LILRB4蛋白胞外段) and 0.386 µg/mL in the assay with THP-1细胞表面的LILRB4 [4]. Further, the “IC50 of inhibition of ARG1 secretion by THP-1 cells with ApoE (arginase activity)” value with THP-1细胞表面的LILRB4 [3] amounted to 30.6 µg/mL.
